Reference: PubChem BioAssay AID504374 (National Center for Advancing Translational Sciences (NCATS), 2011)
In all, about 1,500 compounds went through this assay and about 100 (6.7%) were called active. Roughly 7% stayed inconclusive and do not appear here. Calls come from the whole dose curve; as a rule, active = well fitted inhibition curve with a large enough effect; inconclusive = small, poorly fitted or top-dose-only effect, or effect the other way; inactive = flat fitted curve, though single readings scatter. The list shows a part of the results.

molecular target: Runt-related transcription factor 1 (Homo sapiens) + Core-binding factor subunit beta (Homo sapiens) (UniProt Q01196+Q13951); experiment: qHTS Assay for Compounds Blocking the Interaction Between CBF-beta and RUNX1 for the Treatment of Acute Myeloid Leukemia: Hit Validation; details: AlphaScreen CBFb-His/RUNX1-biotin binding; series mostly up to 59.8 µM; activity, negative = inhibition: at the top concentration; note: nearly all actives have a fitted effect of over 60% in size
Text: NIH Chemical Genomics Center [NCGC]
NIH Molecular Libraries Probe Production centers Network [MLPCN]
Assay Submitter (PI): Paul Liu
Core Binding Factor (CBF) abnormalities are associated with 20-25% of all acute myeloid leukemias (AML), of which 5-10% are further sub classified as acute myelomonocytic leukemia with eosinophilia, also known as M4Eo in the FAB classification scheme. This subtype of leukemia is usually associated with chromosome 16 inversion (p13:q22). Chromosome 16 inversion results in formation of the fusion oncogene CBFB-MYH11, which encodes the fusion protein CBF-beta-SMMHC.
It has been hypothesized that the interference of CBF-beta and RUNX1 binding could have therapeutic implications for patients with CBF mediated leukemias. We developed a CBF-beta and RUNX1 binding assay in AlphaScreenTM format and optimized it for high throughput screening to search for inhibitors. The goal of this project is to screen MLPCN's compound collection (MLSMR) for identifying the inhibitors of the interaction between CBF-beta and RUNX1 proteins as research probes. If these probes work well in the animal models, the ultimate goal of this project is to development a new drug treatment for this disease.
This assay can not be used to assess how apparent inhibitors interfere with protein binding, and whether inhibitors specifically bind to either protein. Disruption of this protein-protein interaction, through any mechanism, is the intended target activity.
The present data set was run to confirm the activity of hits from the primary screen.
NCGC Assay Protocol Summary:
Step, Parameter, Description
(1) Reagent, 3 uL CBFb-His/RUNX1-biotin mix incubated together for 20 minutes at room temperature (30 nM each)
(2) Compound or control, 23 nL compound stock solution
(3) Incubation, 15 minutes at Room temperature
(4) Reagent, 1 uL 50 ng each of beads (Nickel beads and streptavidin beads)
(5) Incubation, 90 minutes at Room temperature
(6) Detection, Excitation=365 nm Emission=440 nm, Envision reader in AlphaScreenTM mode
Keywords: MLSMR, MLPCN, NIH Roadmap, qHTS, NCGC, Core binding factor, CBF, CBF-beta, Acute myeloid leukemia
% is set by controls: 0 for no effect and ±100 for the full control effect; potency is the fitted concentration of half-maximal effect.

Sequence of UniProt Q01196 (Q01196 whole entry, looked up): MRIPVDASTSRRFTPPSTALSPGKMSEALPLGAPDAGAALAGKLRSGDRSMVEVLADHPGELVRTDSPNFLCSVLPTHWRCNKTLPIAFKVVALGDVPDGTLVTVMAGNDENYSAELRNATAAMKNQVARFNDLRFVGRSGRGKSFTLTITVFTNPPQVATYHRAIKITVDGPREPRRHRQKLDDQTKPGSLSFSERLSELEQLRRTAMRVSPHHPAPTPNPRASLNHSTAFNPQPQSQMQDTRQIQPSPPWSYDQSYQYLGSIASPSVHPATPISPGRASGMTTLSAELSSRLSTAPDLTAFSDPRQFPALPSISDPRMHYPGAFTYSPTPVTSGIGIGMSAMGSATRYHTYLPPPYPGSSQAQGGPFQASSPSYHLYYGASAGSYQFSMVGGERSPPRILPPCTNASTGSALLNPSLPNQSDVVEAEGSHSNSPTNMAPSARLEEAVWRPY
Sequence of UniProt Q01196 (Q13951 whole entry, looked up): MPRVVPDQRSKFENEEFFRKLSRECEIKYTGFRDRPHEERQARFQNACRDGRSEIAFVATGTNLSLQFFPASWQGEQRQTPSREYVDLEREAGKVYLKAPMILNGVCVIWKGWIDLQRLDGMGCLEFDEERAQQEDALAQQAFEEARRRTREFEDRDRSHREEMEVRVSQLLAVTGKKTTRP

Compound | activity, negative = inhibition | Potency
Cn1ccc(=Nc2ccc(NC(=O)c3ccc(N=c4ccn(C)c5ccc([N+](=O)[O-])cc45)cc3)cc2)cc1 | inactive: -0.289% | –
COC(=O)[C@@H](NC(=O)NC1CCCCC1C)C(C)C (stereo partly specified) | inactive: -1.3% | –
Clc1nc(Cl)nc(-c2cn(-c3ccccc3)c3ccccc23)n1 | inactive: -5.14% | –
CC1=CC2=NC(=O)/C(=C/c3coc4ccccc4c3=O)C(=N)N2O1 | inactive: 4.47% | –
Cc1cc(C)c(OCC(=O)N(Cc2ccc(N(C)C)cc2)C2CCS(=O)(=O)C2)c(C)c1 (stereo unspecified) | inactive: -20.1% | –
Cc1ccc(-c2cc(-c3ccco3)c3c(N)c(C(=O)NN)oc3n2)cc1 | inactive: 11.2% | –
CCCCCCC(=O)N(O)C1CC(=O)N(c2ccc(Cl)cc2)C1=O (stereo unspecified) | inactive: -3.6% | –
S=c1[nH]ccn1-c1ccccc1Cl | inactive: -10.1% | –
CCOc1ccc(/C(C)=N/NC(=O)Cn2nc([N+](=O)[O-])cc2C)cc1 | inactive: -2.13% | –
COC(=O)c1scc(C)c1NS(=O)(=O)c1ccc(NC(C)=O)cc1 | inactive: -8.25% | –
CC1SCC(=NOCc2c(Cl)cccc2Cl)CS1 (stereo unspecified) | inactive: -2.32% | –
Cc1ccc(C#N)c(SCc2ccccc2F)n1 | inactive: 4.1% | –
CCCCn1cc([N+](=O)[O-])nc1C | inactive: -5.88% | –
CCCn1nc(NC(=O)c2ccco2)c2cc3cc(C)ccc3nc21 | inactive: -1.98% | –
S=C(Nc1ccccc1)Nc1nccs1 | inactive: -2.37% | –
CC(C)(C)NC(=O)NCCc1ccccc1 | inactive: -1.62% | –
CC(=O)c1c(COC(=O)c2ccccc2Cl)nc2ccccc2[n+]1[O-] | inactive: -3.37% | –
CC(C)c1cc(C(C)C)n2nc(N)nc2n1 | inactive: -16.5% | –
Cc1nc(-c2ccc(S(=O)(=O)N3CCCN(CCc4ccccc4)CC3)s2)cs1 | inactive: -8.4% | –
O=C(c1ccc(-c2ccccc2)cc1)c1ccc([N+](=O)[O-])cc1 | inactive: -13% | –
Cc1[nH]c(=S)c(C#N)c(C)c1Cc1ccc(Cl)cc1Cl | inactive: -3.7% | –

Compound | activity, negative = inhibition | Potency
COC(=O)c1ccc(CN2CCCCC2)cc1 | inactive: -5.13% | –
CCOC(=O)c1nnn2c1nc(N1CCN(c3ccccc3)CC1)c1ccccc12 | inactive: 0.298% | –
Cn1c(SCC(=O)N/N=C/c2ccncc2)nc2ccccc21 | inactive: -13.8% | –
O=C1CN2CCC1C/C2=C\c1ccnc2c(Cl)cccc12 (stereo unspecified) | inactive: 0.762% | –
CCOC(=O)c1sc(NNC(=O)c2ccc(C)cc2)nc1C | inactive: -9.91% | –
CC1=CC(=O)CC(C)(C)C1(O)/C=C/C(C)=C/C(=O)O (stereo unspecified) | inactive: -3.77% | –
CCCC(=O)NC(c1cccs1)c1cc([N+](=O)[O-])c2cccnc2c1O (stereo unspecified) | – | active: 3.98 µM
COc1cc(/C=N/Nc2ccc(S(N)(=O)=O)cc2[N+](=O)[O-])cc(OC)c1O | inactive: -20.2% | –
C/C(=C\C(=O)Nc1cscc1C)C(=O)O | inactive: 0.983% | –
O=C(Nc1ccccc1)N1CCCC1c1cccs1 (stereo unspecified) | inactive: -4.49% | –
Cc1cccnc1NC(=O)c1csnn1 | inactive: -0.56% | –
CCCCCCOc1ccc(N2C(=O)CC(NCc3ccc(S(N)(=O)=O)cc3)C2=O)cc1 (stereo unspecified) | inactive: 0.678% | –
CCCCc1cc(=O)oc2cc(OCc3nn[nH]n3)ccc12 | inactive: -6.88% | –
COc1ccc(CCNC(=S)NC(=O)c2cccc(Cl)c2)cc1OC | inactive: -24% | –
O=C(/C=C/c1cccnc1)/C=C/c1cccnc1 | inactive: -5.39% | –
COc1ccc(Cn2c(O)c(C=Nc3ccccc3C(=O)O)c3ccccc3c2=O)cc1 | inactive: -11.9% | –
Cc1c(C(=O)c2ccccc2)oc2ccc3ccccc3c12 | inactive: 5.2% | –
COc1ccc(-n2c(-c3ccc(Cl)cc3)c[n+]3c2CCCCC3)cc1 | inactive: -1.28% | –
COc1cc(NCc2ccccc2O)c2ncccc2c1 | inactive: -15.9% | –
COC(=O)CNC(=O)CSc1ccccn1 | inactive: 6.43% | –
COc1ccc(N/N=C(\C#N)C(=N)N2CCCCC2)cc1 | inactive: -24.9% | –

Compound | activity, negative = inhibition | Potency
CC(C)(C)S(=O)(=O)/C(C#N)=C/Nc1ccccn1 | inactive: -2.32% | –
N#CCN1CCC2(O)CCCCC2C1c1ccc2c(c1)OCO2 (stereo unspecified) | inactive: -3.82% | –
N#Cc1cccc(C#N)c1Oc1ccc(S(=O)(=O)Nc2ccc(Cl)cc2)cc1 | inactive: -0.103% | –
C=C(C)c1cccc(C(C)(C)NC(=O)N2CCN(c3ccccc3)CC2)c1 | inactive: 4.16% | –
COC(=O)C/C(N)=C(\C#N)C(=O)OC | inactive: 7.94% | –
O=C(NC(=S)Nc1ccccc1N1CCCC1)c1cccs1 | inactive: -6.14% | –
Fc1ccccc1/C=N/n1c(-c2cccnc2)n[nH]c1=S | inactive: -0.276% | –
COc1ccc2nc(-c3ccc(Cl)cc3)cc(C(=O)O)c2c1 | inactive: -1.23% | –
O=S(=O)(NCc1ccccn1)c1cc(OCC(F)(F)F)ccc1OCC(F)(F)F | inactive: -5.21% | –
CN(C(=O)Nc1ccc(C(C)(C)C)cc1)C1CCCCC1 | inactive: 3.09% | –
COc1ccc(CCNC(=S)NC(=O)c2c(-c3ccccc3Cl)noc2C)cc1OC | inactive: -11.4% | –
O=[N+]([O-])c1ccc2c(c1)S(=O)c1ccccc1-2 (stereo unspecified) | inactive: -4.82% | –
CCCNC(=S)Nc1ccccc1 | inactive: -3.03% | –
c1ccc(N2CCOCCOCCOCCOCC2)cc1 | inactive: -1.73% | –
CCN(CC)S(=O)(=O)c1cccc(N2CC(O)=C(c3ccccc3)C2=N)c1 | inactive: -0.813% | –
CCOC(=O)/C(C#N)=C/Nc1cc(F)ccc1C | inactive: -3.99% | –
Cc1ccc(NC(=S)Nc2ccccn2)cc1C | inactive: -4.63% | –
Cc1c(O)nc2ccccn2c1=O | inactive: 1.38% | –
CSC(=Nc1ccccc1)Nc1ccccc1 | inactive: -0.945% | –
